Measured values published in PubChem BioAssay AID493208 (National Center for Advancing Translational Sciences (NCATS), 2011).
The whole screen tested about 44,000 compounds, of which about 340 (0.77%) were called active. Not shown: some 5% with an inconclusive outcome. The call rests on the fitted dose curve; in most records, active means well fitted inhibition curve with a large enough effect; inconclusive means small, poorly fitted or top-dose-only effect; inactive means flat fitted curve, though single readings scatter. Some of the results follow.

Test: Acumen qHTS Assay for Inhibitors of the mTORC1 Signaling Pathway in MEF (Tsc2-/-, p53-/-) Cells: Sytravon;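 further: plate controls were DMSO for no effect and rapamycin for full effect; nearly all actives have a fitted effect of over 50% in size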
Conditions: phospho-rpS6 immunofluorescence/PI, 24 h; series mostly up to 38.3 µM; activity change, negative = inhibition: at the top concentration
How it was run: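 Readout is phospho-S6 Alexa 488 signal normalized to PI per well, reported as % active cells with thresholds set from rapamycin (7.5 nM) and DMSO controls. Cells: Tsc2-/-, p53-/- MEFs, 24 hrs compound at 37 C; PI cell number serves as viability.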

Activity change, negative = inhibition, inactive:
COc1ccccc1OCCn1c(NC(=O)c2ccccc2)nc2ccccc21 -6.18%
Cc1ccc(NC(=O)C2CCN(c3ncccn3)CC2)cc1F -3.61%
CCOc1ccccc1NC(=O)C(C)n1nnc2sc3c(c2c1=O)CCCC3 (stereo unspecified) 2.42%
COc1cc(OC)c(NC(=O)Nc2sc3nc4n(c(=O)c3c2C)CCC(C)CC4)cc1Cl (stereo unspecified) -14.8%
Cc1ccc(-n2c(SCC(N)=O)nc3c(oc4ccccc43)c2=O)cc1 -8.54%
O=C(COc1cccc(Cl)c1)N1CCC(c2nc3ccccc3s2)CC1 -2.63%
CCn1c(CNC(=O)C23CC4CC(CC(C4)C2)C3)nnc1SCC(=O)Nc1ccc(OC)cc1 -13.4%
O=C(O)c1cccc(NC(=O)c2cccc(S(=O)(=O)Nc3cccc(F)c3)c2)c1 7.94%
O=S(=O)(Nc1ccc(-c2ccc(N3CCCC3)nn2)cc1)c1ccccc1Cl -7.8%
COc1cccc(C(=O)Nc2ccccc2SCc2cc(=O)c3cccc(C)c3[nH]2)c1 5.59%
Cc1ccc(N2CCN(c3nc4ccccc4n4nnnc34)CC2)c(C)c1 0.803%
Cc1cc(C)cc(NC(=O)c2cc(S(=O)(=O)N3CCOCC3)cn2C)c1 1.2%
N#Cc1c[nH]n2c(NC3CCCC3)c(-c3ccc(Br)cc3)nc12 -3.2%
Cc1cc(C)c(NC(=O)Cn2nnc(-c3nc(-c4ccncc4)no3)c2N)c(C)c1 -12.5%
Cc1cccc(-c2nnn3c2nc(NCCC(C)C)c2ccccc23)c1 -1.88%
Cc1ccc(Nc2c(-c3ccc(N4CCOCC4)cc3)nc3ccc(Cl)cn23)cc1 3.04%
CCOc1ccc(C2c3c(oc4ccccc4c3=O)C(=O)N2Cc2ccc3c(c2)OCO3)cc1 (stereo unspecified) -12.5%
Cc1cc2c(cc1S(=O)(=O)N1CCC(C(N)=O)CC1)OCC(=O)N2 8.58%
CC(=O)c1ccc(NC(=O)/C=C/c2ccc(C)o2)cc1 0.112%
COc1cccc(C(=O)Nc2ccc(-c3nc4ccc(C)cc4s3)cc2)c1OC 0.83%
COc1cn(CC(=O)Nc2ccc(C)cc2C)c(CN2CCCCC2)cc1=O 0.184%
O=C(CSc1nc2c([nH]c3ccccc32)c(=O)n1-c1cccc(C(F)(F)F)c1)N1CCCC1 1.1%
CCOC(=O)c1cccc(NC(=O)C2(S(=O)(=O)c3ccc(C)cc3)CC2)c1 1.57%
CCOc1cccc(C2c3c(oc4ccc(F)cc4c3=O)C(=O)N2CCOC)c1 (stereo unspecified) 0.916%
CCCNC(=O)C1CCC(Cn2c(=O)c3sccc3n(CC(=O)N3CCCC(C)C3)c2=O)CC1 (stereo unspecified) -10.2%
CC(=O)C1=C(c2ccc(C)cc2)N(C(C)=O)n2c(nnc2-c2ccccc2)S1 -4.15%
COc1ccc(S(=O)(=O)NCC(c2ccc(N(C)C)cc2)N2CCCC2)cc1F (stereo unspecified) 2.3%
Cc1ccc(Cl)cc1N1CCN(S(=O)(=O)c2ccc3oc(=O)c4ncn(C)c4c3c2)CC1 -13.5%
CCc1ccc(OCC(=O)Nc2ccc(Cl)c(-c3nc4cc(C)cc(C)c4o3)c2)cc1 -9.99%
Cc1cccc(OCC(=O)NCC2(N3CCN(C)CC3)CCCCC2)c1 -6.82%
Cc1cccc(NC(=O)CN2C(=O)COc3ccc(S(=O)(=O)Nc4ccccc4)cc32)c1C -0.201%
Cc1[nH]c2ccc(C(=O)NCCc3ccccc3Cl)cc2c1C -5.31%
CCCS(=O)(=O)N1CC(=O)N(c2ccccc2C)C(C)(C(=O)NC2CCCCC2)C1 (stereo unspecified) 1.72%
Cc1ccc(S(=O)(=O)c2nnn3c2nc(NCc2ccc(F)cc2)c2sccc23)cc1C -9.61%
CC(C)OCCCn1c(=O)c2ccccc2n2c(-c3ccc(F)c(F)c3)nnc12 -20.8%
CCC1CN(C(=O)N2CCC(C(=O)NCc3ccc(C)o3)CC2)c2ccccc2O1 (stereo unspecified) 9.54%
COc1ccc(Nc2cc(C(=O)NCc3ccccc3)c3ccccc3n2)cc1 -1.14%
Cc1nn(-c2ccc(N3CCCC3)nn2)c(C)c1CCC(=O)NCc1ccc(F)cc1 1.22%
O=C(Cn1c(=O)n(Cc2ccc(F)cc2)c(=O)c2sc3ccccc3c21)NCc1ccccc1 -11.7%
O=C(Nc1cccc(-c2nc3cc(Cl)ccc3o2)c1)c1ccc(F)cc1 0.0587%
Cc1ccc(OCCSc2nc3ccccc3n2CC(=O)N2CCCCC2)c(C)c1 1.06%
COc1ccc(-c2nc3sc(CCNC(=O)C(=O)Nc4ccc(C)cc4C)c(C)n3n2)cc1 -0.205%
Cc1ccc(NC(=O)C2CCC(CNS(=O)(=O)c3cccc4nsnc34)CC2)c(C)c1 (stereo unspecified) -8.93%
O=C(Cn1c(=O)oc2cc(S(=O)(=O)N3CCCC3)ccc21)Nc1ccc(OC(F)(F)F)cc1 3.39%
Cc1nc2ccc(S(=O)(=O)N(CC(=O)Nc3cccc(C)c3C)Cc3ccccc3)cc2s1 3.42%
Cc1ccc(C)c(Cn2c(C(C)NC(=O)c3ccccc3)nc3ccccc32)c1 (stereo unspecified) -1.18%
O=C(CCn1cnc2onc(-c3ccc(F)cc3)c2c1=O)N1CCN(c2ccccc2)CC1 0.365%
COc1cccc(OCc2nc3ccccc3n2C)c1 -26.9%
O=C(NCc1noc2ccccc12)N1CCN(c2ccccc2F)CC1 -0.365%
CCOc1cccc2cc(-c3nc(-c4ccc(Cl)cc4)c(C)s3)c(=O)oc12 -0.388%
COc1ccc(-c2ccc(NS(=O)(=O)c3ccccc3Cl)cc2)nn1 3.13%
Cc1nc(N2CCOCC2)c2c(C(=O)N3CCN(c4ccc(Cl)cc4)CC3)c(C)oc2n1 2.68%
COc1ccc(Cn2c(CCC(=O)Nc3cccc(Cl)c3)nc3cccnc32)cc1 -14.4%
CCOc1ccc(C(c2c(C)[nH]n(-c3ccccc3)c2=O)c2c(C)[nH]n(-c3ccccc3)c2=O)cc1OC -1.33%
COc1ccc(-c2nsc(NC(=O)c3cccc(OC)c3)n2)cc1 0.158%
CCN(CC)CCNC(=O)c1ccc2c(=O)n3nc(Nc4cccc(Cl)c4C)sc3nc2c1 -24.8%
CCc1ccc(-c2cn3c(n2)sc2cc(C(=O)NCCCc4ccccc4)ccc23)cc1 3.85%
CCOc1ccccc1CNC(=O)c1ccc2nc(CCc3ccccc3)oc2c1 -5.18%
CCc1nn2c(=O)cc(COC(=O)c3cccs3)nc2s1 -6.59%
COC(=O)c1ccc(CN(Cc2ccc(OC)c(OC)c2)S(=O)(=O)c2ccc(F)c(C(=O)Nc3cc(C)ccc3C)c2)cc1 -10.8%
CCOc1ccccc1NC(=O)CN1Cc2ccccc2C1=O 0.359%
N#Cc1nc(/C=C/c2ccc(F)cc2)oc1N1CCCCC1 0.0534%
CC(Oc1ccccc1)C(=O)Nc1ccc(C(=O)OCc2cc(=O)n3ccsc3n2)cc1 (stereo unspecified) 8.53%
Cc1cccc(C(=O)NCC(=O)OCc2cc(=O)n3nc(C)sc3n2)c1 -9.82%
CCOC(=O)c1ccc(NC(=O)Cn2cc(S(=O)(=O)Cc3ccccc3F)c3ccccc32)cc1 -6.79%
CCCOc1ccccc1C(=O)Nc1ccc(-c2nc3ccc(C)cc3s2)cc1 1.4%
Cc1cccc(Nc2cc(C)nc3nc(Cc4ccc(Cl)cc4)nn23)c1 1.49%
Cc1cc(-c2ccccc2)nc2cc(C(=O)Nc3cc(C(F)(F)F)ccc3Cl)nn12 12.8%
COc1ccc(CNC(=O)c2ccc3c(Cl)c4c(nc3c2)CCCC4)c(OC)c1 -6.93%
Cc1nc(SCC(=O)Nc2ccc(Cl)cc2C(F)(F)F)[nH]c(=O)c1Cc1ccccc1 -10.3%
Cc1ccc(Cn2cc3c(n2)-c2c(oc(C(=O)Nc4ccc(F)cc4F)c2C)CC3)cc1 6.98%
CCN(Cc1ccccc1)Cc1c(O)ccc2c(=O)c(-c3ccccc3Cl)coc12 2.15%
CCn1cc(C(=O)NCCCOC(C)C)c(=O)c2cc(S(=O)(=O)N(C)C3CCCCC3)ccc21 -1.14%
O=C(NCc1ccccc1)c1ccc(Cn2c(=O)c3cccn3c3cccnc32)cc1 -10.5%
CCOC(=O)c1c(-c2ccccc2)csc1NC(=O)c1cc(-c2cccc(Cl)c2)on1 1.24%
Cc1ccc(C)c(N2CCN(S(=O)(=O)c3ccc4c(c3)n(C)c(=O)c(=O)n4C)CC2)c1 -11.4%
COc1cc(OC)c(NC(=O)CSCc2nc(-c3ccc(OC)c(OC)c3)no2)cc1Cl -10.9%
CC(=O)c1cccc(NC(=O)c2ccc3c(c2)c(C)c(C)n3Cc2ccc(Cl)cc2)c1 -18.2%
O=C(Nc1cc(-c2nc3cc(Cl)ccc3o2)ccc1Cl)c1cc2ccccc2o1 8.32%
COc1ccccc1NC(=O)CCn1cnc2onc(-c3ccc(F)cc3)c2c1=O -8.5%
COc1cc(C)ccc1OCCSc1nc2ccc(NC(=O)c3ccc(C)cc3)cc2s1 -1.84%
CC1(C)CC(=O)c2cc(-c3nc(-c4ccc(Cl)cc4)cs3)c(=O)n(-c3cccc(F)c3)c2C1 -2.45%
COc1ccc(-c2ccc(CCC(=O)O)n2CC(=O)Nc2cccc(Cl)c2C)cc1 -15.3%
COc1ccc(CNC(=O)CCc2c(C)nc3nc(CNC(=O)OC(C)(C)C)nn3c2C)cc1 0.728%
Cn1cc(C(=O)NCCc2ccccc2)c(=O)c2cc(S(=O)(=O)N3CCCCCC3)ccc21 7.37%
Cc1c(C(=O)N(Cc2ccc(N(C)C)cc2)Cc2ccco2)oc2cc(Br)ccc12 5%
CC(=O)c1cccc(Nc2nn(-c3ccc(OC(F)(F)F)cc3)nc2C(C)=O)c1 0.759%
CCCSc1nnc2c(n1)OC(c1ccc(OCC(=O)O)cc1)Nc1ccccc1-2 (stereo unspecified) 1.55%
COc1ccccc1-c1noc(-c2ccc(NCc3cccnc3)c([N+](=O)[O-])c2)n1 -2.24%
O=C(CN1C(=O)CC(c2ccco2)Sc2ccccc21)Nc1ccc(Br)cc1 (stereo unspecified) 0.0263%
COc1ccc(-n2ccn(Cc3ccccc3C)c(=O)c2=O)cc1 0.0552%
Cc1ccc(OCC(=O)Nc2ccc3[nH]c(=O)sc3c2)cc1 -9.65%
CCc1cc2c(cc3c(=O)n(CC(=O)NC4CCCCC4)ncn32)s1 -6.49%
COc1cccc(C(c2sc3nc(-c4ccco4)nn3c2O)N2CCN(c3ccccc3F)CC2)c1 (stereo unspecified) 1.01%
CCOc1ccc(N(C(C)C(=O)NCCSc2ccc(C)cc2)S(C)(=O)=O)cc1 (stereo unspecified) -25.8%
CCCCn1cc(S(=O)(=O)c2ccc(CC)cc2)c(=O)c2cc(F)c(N3CCOCC3)cc21 -2.69%
